Hit rate of the full screen: of about 390,000 compounds, about 2,200 (0.56%) were called active. Entries that show only a call come without a potency. Inconclusive results, whose numbers are uncertain, are shown with a selection of clear calls. The call rests on the fitted dose curve; in most records, active means well fitted inhibition curve with a large enough effect; inconclusive means small, poorly fitted or top-dose-only effect; inactive means no such curve, though single readings can be large or run the other way. A potency beside an inconclusive call is a rough fit, not a confirmed value.
The compounds below were run against Chromobox protein homolog 1 (Homo sapiens) (UniProt P83916) (assay: HTS for Inhibitors of HP1-beta Chromodomain Interactions with Methylated Histone Tails). Conditions: AlphaScreen HP1-beta / biotin-H3K9me3 peptide binding; series mostly up to 114 µM.
Chain of UniProt P83916 (P83916 whole entry, looked up): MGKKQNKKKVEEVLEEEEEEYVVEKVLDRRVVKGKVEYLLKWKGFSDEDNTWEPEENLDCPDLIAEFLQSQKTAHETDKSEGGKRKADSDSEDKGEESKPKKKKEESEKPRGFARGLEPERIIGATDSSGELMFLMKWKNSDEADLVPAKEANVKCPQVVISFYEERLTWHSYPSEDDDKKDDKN
How it was run: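 HP1-beta protein (50 nM final) preincubated 30 min at room temperature with biotinylated H3(1-18)K9me3 peptide (50 nM) in PBS pH 7.4, 0.01% Tween-20, then compound added for 30 min. AlphaScreen streptavidin donor/nickel chelate acceptor beads (10 ug/mL final), 30 min dark, luminescence read.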
Further: nearly all actives have a fitted effect of over 70% in size.
Potency means the concentration at half of the fitted maximal effect; tags describe the fitted curve by direction and shape.

Row | SMILES | Potency
1 | Cn1c(SSc2ccc(-c3cccnc3)n2C)ccc1-c1cccnc1 | inconclusive: 50.1 µM [inhibitor, partial curve]
2 | O=C(C1CN(C(=O)c2cc3cc(Cl)ccc3o2)c2ccccc2O1)N1CCCCC1 (stereo not drawn) | inactive
3 | Cc1nc(-c2noc(-c3ccc(Cl)cc3)n2)c(C(F)(F)F)o1 | inactive
4 | COc1cc(OC)cc(C(=O)N2CCN(C3CCCCC3)CC2)c1 | inconclusive: 50.1 µM [inhibitor, partial curve]
5 | Cc1onc(-c2c(Cl)cccc2Cl)c1C(=O)N1CCN(c2ccc(F)cc2)CC1 | inconclusive: 89.1 µM [inhibitor, partial curve, poor fit]
6 | CCN=c1scc(-c2ccc(F)cc2)n1/N=C/c1ccccn1 | inconclusive: 44.7 µM [inhibitor, partial curve, poor fit]
7 | NNC(=O)c1cccn(Cc2ccc(Cl)cc2Cl)c1=O | inactive
8 | O=C(Nc1nc2c(Br)cccc2s1)C1CC1 | inactive
9 | COc1ccc2[nH]c(=O)c(CN(C)C(=O)c3cccs3)cc2c1 | inconclusive: 89.1 µM [inhibitor, single point]
10 | Cc1ccc(S(=O)(=O)/N=C2\C=C(Nc3cccc(C(=O)O)c3)C(=O)c3ccccc32)cc1 | inconclusive: 35.5 µM [inhibitor, partial curve]
11 | CCOc1cc(/C=C2\CN(CC)C/C(=C\c3ccc(O)c(OCC)c3)C2=O)ccc1O | inactive
12 | CNc1sc(C(=O)c2ccccc2F)c(N)c1-c1nc2ccccc2s1 | inconclusive: 22.4 µM [inhibitor, partial curve, poor fit]
13 | COc1cc(N=Nc2c(C)n(C)n(-c3ccccc3)c2=O)ccc1N | inactive
14 | CC1CCCC(C)N1CC(O)COCc1ccccc1F (stereo not drawn) | inconclusive: 79.4 µM [inhibitor, single point]
15 | CCOC(=O)CNC(=O)c1ccc(OCC(F)(F)F)cc1 | inactive
16 | CN(C)/N=C/c1c(O)ccc2ccccc12 | inconclusive: 50.1 µM [inhibitor, single point]
17 | C=CCn1c(SCC(=O)c2ccc(NS(=O)(=O)c3ccccc3)cc2)nnc1-c1cccs1 | inactive
18 | CCOC(=O)C1=CC[C@H]2c3c(c4ccccc4n3C)C(=O)C1N2Cc1ccccc1 | inactive
19 | Cc1ccc(C(=O)N2CCSC2=S)cc1 | inconclusive: 79.4 µM [inhibitor, partial curve, poor fit]
20 | Cc1ccc(/C=C2/SC(=O)NC2=S)o1 | inconclusive: 56.2 µM [inhibitor, partial curve, poor fit]
21 | O=C(c1cc2ccccc2cc1O)N1CCCC1 | inactive
22 | CCC(NC(=O)Nc1nccs1)(C(F)(F)F)C(F)(F)F | inactive
23 | Cc1ccccc1NC(=O)c1ccc(Nc2c([N+](=O)[O-])cc([N+](=O)[O-])c3ccccc23)cc1 | inconclusive: 20 µM [inhibitor, single point]
24 | CCn1c2ccccc2c2cc(CN3CCN(S(C)(=O)=O)CC3)ccc21 | inconclusive: 70.8 µM [inhibitor, partial curve]
25 | C=CCOc1ccc2c3c(c(=O)oc2c1)CCCC3 | inactive
26 | COc1ccc(Cc2c3cc(OC)c(OC)cc3cc[n+]2C)cc1OC | inconclusive: 79.4 µM [inhibitor, single point]
27 | O=c1cc(CSc2ccc(Cl)cc2)[nH]c2[nH]n(-c3ccccc3)c(=O)c12 | inconclusive: 35.5 µM [inhibitor, partial curve]

Row | SMILES | Potency
28 | CCOCCn1ccc2c(OCC(=O)Nc3cccc([N+](=O)[O-])c3)cccc2c1=O | inactive
29 | O=C(Cn1nc(-c2ccc(Cl)cc2)c2ccccc2c1=O)NN1CCOCC1 | inactive
30 | Clc1ccc(/C=N/N2CCN(Cc3ccccc3Cl)CC2)cc1 | inactive
31 | CN1CCN(c2ccc(S(=O)(=O)N3CCOCC3)cc2NC(=O)COc2ccc(C#N)cc2)CC1 | inactive
32 | CC1CCCC(NC(=O)CCCn2c(=O)[nH]c3cc(Cl)ccc3c2=O)C1C (stereo not drawn) | inconclusive: 100 µM [inhibitor, single point]
33 | COc1cc(C(O)CO)ccc1OS(=O)(=O)O (stereo not drawn) | inactive
34 | COc1ccccc1C(=O)NC(C)c1ccc(-n2ccnc2)cc1 (stereo not drawn) | inactive
35 | CCC(C)(NC(=O)c1ccc2c(c1)OCO2)C(=O)NC1CCCCC1 (stereo not drawn) | inactive
36 | COc1ccccc1NC1=C(NC(C)=O)C(=O)c2ccccc2C1=O | active: 50.1 µM
37 | CC1CCc2c(nc3ncnn3c2NCCN(C)C)C1 (stereo not drawn) | inactive
38 | O=C(NNc1ccccc1[N+](=O)[O-])Nc1ccc(F)cc1F | inactive
39 | Cc1c(C)n(C)c2ccc(C(=O)NCCN3CCOCC3)cc12 | inactive
40 | CCN(CC)CCNc1nc(-c2ccc(OC)cc2)c(-c2ccc(OC)cc2)s1 | inactive
41 | O=C(c1ccc(S(=O)(=O)N2CCCCC2)cc1)N1CCCC(C(F)(F)F)C1 (stereo not drawn) | inactive
42 | COCCn1c(=O)c2ccccc2c2ccccc2c1=O | inactive
43 | CCOC(=O)C1=C(c2ccc(OC)cc2)C(=O)c2ccccc2C1=O | active: 31.6 µM
44 | CCOC(=O)c1c(N)sc2c1CCSC2 | inactive
45 | CC(C)(C)c1ccccc1OCCN1CCCC1 | inconclusive: 50.1 µM [inhibitor, partial curve, poor fit]
46 | O=C(O)c1ccccc1C=NN=C1c2ccccc2-c2ccccc21 | inconclusive: 56.2 µM [inhibitor, single point]
47 | Cc1cc(C)cc(C(=O)Nc2c3c(nn2-c2ccccc2C)CS(=O)(=O)C3)c1 | inactive
48 | Cc1cccc(NC(=O)CNC(=O)Cn2ncc(Cl)c(Cl)c2=O)c1C | active: 70.8 µM
49 | CN(C(=S)NCCN1CCOCC1)C(c1ccccc1)c1ccccc1 | inconclusive: 22.4 µM [inhibitor, full curve]
50 | Clc1ccc(-c2nnc(-c3ccc(Br)cc3)c(N3CCSCC3)n2)cc1 | inactive
51 | Cc1ccc(OCCOCCn2ccnc2)c(Br)c1 | inconclusive: 50.1 µM [inhibitor, partial curve, poor fit]
52 | Cc1ccc(C(=O)Nc2ccccc2N2CCCCC2)o1 | inactive
53 | CC(C)(C)n1nnnc1C(c1ccncc1)N1CCN(c2ccc(O)cc2)CC1 (stereo not drawn) | inconclusive: 79.4 µM [inhibitor, partial curve]

Source: PubChem BioAssay AID540317 (National Center for Advancing Translational Sciences (NCATS), 2011)
